# From PubChem BioAssay AID1347417 (National Center for Advancing Translational Sciences (NCATS), 2020)
# About 5,300 (4.4%) of roughly 120,000 compounds were called active. Inconclusive results, whose numbers are uncertain, are shown with a selection of clear calls. Calls follow the shape of the dose curve; as a rule, active = well fitted inhibition curve with a large enough effect; inconclusive = small, poorly fitted or top-dose-only effect; inactive = no such curve, though single readings can be large or run the other way. Potencies beside an inconclusive call are fits to weak or partial responses and may not hold up.
# Test: qHTS Primary assay for Inhibitors of Plasmodium falciparum Dd2 growth in vitro; also: nearly all actives have a fitted effect of over 65% in size;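 as to activity, negative = inhibition: plate controls were DMSO vehicle for no effect and reference drug for full effect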
# Conditions: P. falciparum Dd2 growth, SYBR Green, 72 h; activity, negative = inhibition: at 28.9 µM (top of the series) unless noted; series mostly up to 28.9 µM
# Outline: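 Infected erythrocytes (Dd2, 0.3% parasitemia, 2.5% hematocrit final) are added to compound in RPMI-1640/Albumax II medium, grown 72 h at 37C in low oxygen, then lysed with saponin/Triton-X containing SYBR Green and read by fluorescence.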
# Potency is read from the fitted curve at half-maximal effect; tags tell the direction and shape of the fitted curve.
Structure (SMILES),"activity, negative = inhibition",Potency,outcome
CCc1ccc(C2C(C(=O)Nc3ccccc3OC)=C(C)Nc3nc(SCc4ccccc4)nn32)cc1 (stereo not drawn),inactive: -9.05%,,
CCOc1ccc(CNC(=O)CN2N=C(c3ccccc3)CCC2=O)cc1OC,,"inconclusive: 0.0355 µM [inhibitor, full curve, poor fit]",
COc1c(C)cccc1-c1nc(C2CCOC2)no1 (stereo not drawn),inactive: 0.711%,,
Cc1ccc(-n2ncc(C(=O)NCCN3CCN(C)CC3)c2C2CCN(C(=O)OC(C)(C)C)CC2)cc1,,"inconclusive: 17.8 µM [inhibitor, single point]",
COc1cccc(CNC(=O)c2ccc3c(c2)CC(=O)N3Cc2cccc(F)c2)c1OC,,"inconclusive: 15.8 µM [inhibitor, single point]",
COc1ccc(-c2cc(N3CCCN(C(=O)CCCc4ccccc4)CC3)n[nH]2)cc1,,active: 2.24 µM,
Cc1cn2nnc(C(=O)NCC3CCCCC3)c2c(=O)[nH]1,,active: 6.31 µM,
N#Cc1ccc(CN2CCCCCCNC(=O)[C@@H]3C[C@@H](C(=O)N4CCc5ccccc5C4)C[C@@H]32)cc1,,active: 2.82 µM,
COc1ncccc1-c1cc(-c2c(C)noc2C)cc2c1C(=O)N(C)C2=O,,,inactive [at 44.1 µM]
CN(C)C(=O)c1cccnc1OC1CCNCC1,inactive: 18.6%,,
O=C(Nc1cccc(-c2nnc3n2CCCC3)c1)c1ccncc1,,"inconclusive: 8.91 µM [inhibitor, partial curve, poor fit]",
CCc1cc(N2CCCC(OCc3ccccn3)C2)n2nc(C)c(C)c2n1 (stereo not drawn),,"inconclusive: 8.91 µM [inhibitor, single point]",
COc1cccc(CNC(=O)c2cc3c(=O)n(Cc4cccnc4)ccc3nc2C)c1,inconclusive: -88.7% [inhibitor] [at 5.79 µM],,
O=C1CC(c2ccccc2)N(C(=O)CNC(=O)c2ccncc2)CCCCCN1 (stereo not drawn),inactive: -5.77%,,
CN(Cc1cc(C[C@@H]2C[C@H](NCc3cccnc3)C2(C)C)no1)c1ccccc1,,"inconclusive: 2.51 µM [inhibitor, partial curve, poor fit]",
COC(=O)c1ccc2nc(CO[C@H]3CN(Cc4ccc(S(C)(=O)=O)cc4)C[C@H]3F)[nH]c2c1,,"inconclusive: 11.2 µM [inhibitor, single point]",
O=C(NCc1cccc(C(F)(F)F)c1)c1ccc2nccn2c1,inactive: -22.6% [at 44.1 µM],,
COCCN1CCCC(c2[nH]ccc2C(=O)N2CCN(c3ccccc3)CC2)C1 (stereo not drawn),,"inconclusive: 7.94 µM [inhibitor, partial curve, poor fit]",
Cc1cc(C)n(CC(=O)N[C@@H]2CN(Cc3cccnc3)C[C@H]2CN(C)C)n1,,"inconclusive: 0.282 µM [inhibitor, full curve, poor fit]",
Cc1ccccc1C(=O)NC1CCN(c2cc(-c3ccccc3)[nH]n2)CC1,,,inactive
c1ccc(CNC[C@H]2Cn3cc(-c4ccccc4)nc3CO2)cc1,,"inconclusive: 31.6 µM [inhibitor, single point]",
COc1cc(CN2CCOc3ccc(C(=O)NCc4ccccc4F)cc3C2)ccc1O,,"inconclusive: 17.8 µM [inhibitor, single point]",
Cc1c(CNC(=O)c2ccccc2C2CCNC2)oc2ccccc12 (stereo not drawn),inactive: -5.42%,,

Structure (SMILES),"activity, negative = inhibition",Potency,outcome
Cc1ccc(C)c(Cn2c(=O)n(CCCC(=O)NCCc3ccc(Cl)cc3)c(=O)c3ccccc32)c1,,"inconclusive: 8.91 µM [inhibitor, single point]",
O=C1NCCCCCCN(C(=O)Cc2cccnc2)[C@@H]2CCC[C@H]12,inactive: 17.6%,,
Cc1cn2nc(C(=O)Nc3ccc4c(c3)OCO4)cc2c(N(C)Cc2ccccc2)n1,,"inconclusive: 3.98 µM [inhibitor, single point]",
Cc1cccc(CN2CCC3(CC2)COCCN3C(=O)OCc2ccccc2)c1,,"inconclusive: 5.62 µM [inhibitor, single point]",
O=C(Cn1c(=O)n(Cc2ccccc2)c(=O)c2sc3ccccc3c21)Nc1ccc(F)cc1,,"inconclusive: 17.8 µM [inhibitor, single point]",
COCC(=O)N[C@H]1CCN2C(=O)c3cc(Br)ccc3NC(=O)[C@@H]2C1,inactive: -17.7% [at 44.1 µM],,
O=C1CCCN1CCCN1C(=O)[C@@H]2C[C@@H](O)CN2C2(CN(Cc3ccccc3Cl)C2)C1=O,inactive: 48.6%,,
CO[C@H]1[C@H](NC(=O)c2c(F)cccc2Cl)c2ccccc2C12CCNCC2,,"inconclusive: 20 µM [inhibitor, single point]",
COc1ccc(-c2cc(-c3cccc(NC(C)=O)c3)cn3cncc23)cc1,,"inconclusive: 5.62 µM [inhibitor, single point]",
Cc1cnc(CC2CCCN(S(C)(=O)=O)C2)n1C(C)C (stereo not drawn),inactive: -1.6%,,
COC(=O)[C@@H]1Cc2ncn(C)c2CN1S(=O)(=O)c1ccc(OC)cc1,,"inconclusive: 15.8 µM [inhibitor, single point]",
O=C(CCCc1ccccc1)NCc1nnc2cc(-c3nc(C4CC4)no3)ccn12,,"inconclusive: 8.91 µM [inhibitor, partial curve]",
CCCc1ccc2oc(C(=O)N(C)Cc3snnc3C)c(C)c2c1,,"inconclusive: 11.2 µM [inhibitor, partial curve]",
Fc1ccc(Nc2nc(-c3ccccc3F)no2)cc1,,"inconclusive: 10 µM [inhibitor, partial curve]",
CCOC(=O)CCCCN(Cc1ccccc1F)S(=O)(=O)c1ccc(F)c(C(=O)Nc2cc(Cl)cc(Cl)c2)c1,,"inconclusive: 10 µM [inhibitor, single point]",
CC1(C(=O)NCc2cc(F)cc(F)c2)CCOCC1,inactive: 8.2% [at 44.1 µM],,
COc1ccc2[nH]c(C(=O)N3CCCCCNC(=O)[C@@H]4CCC[C@@H]43)cc2c1,,"inconclusive: 17.8 µM [inhibitor, single point]",
Cc1nc2c(c(=O)n1C)CN(C(=O)[C@H]1CNC[C@H](C(=O)N3CCCC3)C1)C2,inactive: -21.8%,,
COc1ccc(-c2noc(-c3cc(-c4ccc(F)cc4)n[nH]3)n2)cc1,inactive: 5.28%,,
CC(CCn1cccn1)NC(=O)c1ccc(OC2CCN(C(=O)C3CC3)CC2)cc1 (stereo not drawn),inactive: -1.79%,,
CC(C)Oc1cccc(-c2cccc(COc3ccc4c(cnn4CC[S+](C)(=O)[O-])c3)c2)c1,,"inconclusive: 3.98 µM [inhibitor, partial curve, poor fit]",
COc1ccc(C(=O)N[C@@H]2CCC[C@@H]2C(=O)NCc2c(C)n[nH]c2C)cc1,inactive: 1.64%,,
CC(=O)N1CCC(N2CC3CC(C2)[C@H]2CCCC(=O)N2C3)CC1 (stereo partly drawn),inactive: -22.7%,,

Structure (SMILES),"activity, negative = inhibition",Potency,outcome
CCOCCCNC(=O)c1ccc(Cn2c(=O)c3cccn3c3cccnc32)cc1,,"inconclusive: 20 µM [inhibitor, partial curve, poor fit]",
CC(C)n1c(CNC(=O)CC[C@H]2NC(=O)c3ccccc3NC2=O)nc2ccccc21,,"inconclusive: 12.6 µM [inhibitor, single point]",
Cc1ccc2nc(-c3ccc(NC(=O)COc4ccccc4C(C)(C)C)cc3)sc2c1,inactive: 9.44%,,
Cc1cn2nc(C(=O)Nc3ccc(N(C)C)cc3)cc2c(N(C)Cc2ccccc2)n1,,active: 0.794 µM,
COc1cc(NC(=O)CN2CCCN(S(=O)(=O)c3ccc(F)cc3)CC2)cc(OC)c1,,"inconclusive: 0.112 µM [inhibitor, partial curve, poor fit]",
COc1ccc(CNC(=O)C2CC(=O)N(c3n[nH]c4cccc(F)c34)C2)cc1OC (stereo not drawn),,"inconclusive: 20 µM [inhibitor, single point]",
Cc1noc([C@@H]2CN(Cc3cccc(Cl)c3F)C[C@H]2CO)n1,inactive: -8.36%,,
COc1ccc(NC(=O)COc2cccc(-c3nnc4n3CCCC4)c2)cc1,,"inconclusive: 2.82 µM [inhibitor, full curve, poor fit]",
CC(C)C1=NOC2(CCN(C3COC3)CC2)C1,inactive: 3.57% [at 44.1 µM],,
Cc1c(C(=O)OC2CCCCCC2)[nH]c2c1C(=O)CC(c1ccccc1)C2 (stereo not drawn),inconclusive: -82.2% [inhibitor] [at 5.79 µM],,
Cc1nc2ccc(S(=O)(=O)NC(CC(C)C)C(=O)NCc3ccc(Cl)cc3)cc2s1 (stereo not drawn),,"inconclusive: 12.6 µM [inhibitor, single point]",
CCCCNc1ncc(C(=O)O)c(CC)n1,inactive: -6.3%,,
COc1ccc(CN2CCCC3(CC(c4ccccn4)=NO3)C2)cc1 (stereo not drawn),inconclusive: -128% [inhibitor],,
CCOc1ccc(S(=O)(=O)NCc2nc3cccnc3n2Cc2ccccc2OC)cc1,,"inconclusive: 10 µM [inhibitor, single point]",
Cc1ccc(C(=O)N2C[C@@H](CO)[C@H](c3ccccn3)C2)cc1F,,"inconclusive: 0.447 µM [inhibitor, partial curve, poor fit]",
CCCCNC(=O)CSc1nc2n[nH]c(C)c2c(=N)n1-c1cccc(C)c1,,"inconclusive: 17.8 µM [inhibitor, single point]",
COc1ccc(C(=O)NC2CCN(c3cnn(CC4CC4)c(=O)c3)CC2)cc1OC,inactive: -26.4%,,
CCn1nc(C)c(-c2cc(C(=O)N3CCCCCCNC(=O)[C@@H]4CCCC[C@@H]43)no2)c1C,,"inconclusive: 10 µM [inhibitor, partial curve, poor fit]",
O=C(Cc1cccc(Cl)c1)N1CCNc2cnc(Nc3cccc(C(F)(F)F)c3)nc2C1,,"inconclusive: 10 µM [inhibitor, single point]",
Cc1ccc(-c2cc3nccc(-c4cc([N+](=O)[O-])ccc4O)n3n2)cc1,,"inconclusive: 1.12 µM [inhibitor, single point]",
CCc1noc(CC2CCOC3(CCN(S(=O)(=O)c4ccc(Cl)cc4)CC3)C2)n1 (stereo not drawn),,"inconclusive: 14.1 µM [inhibitor, single point]",
COC(=O)[C@@H]1Cc2c([nH]c3ccccc23)[C@H]2C[C@@H](NCc3cccnc3)C[C@@H](c3ccc(OC(F)(F)F)cc3)N21,,"inconclusive: 17.8 µM [inhibitor, single point]",
